Laboratory results reported in PubChem BioAssay AID1768 (National Center for Advancing Translational Sciences (NCATS), 2009).
Hit rate of the full screen: of about 270,000 compounds, about 620 (0.23%) were called active. Inconclusive results, whose numbers are uncertain, are shown with a selection of clear calls. The call rests on the fitted dose curve; in most records, active means well fitted inhibition curve with a large enough effect in the polarisation, with a control signal flat (not every such curve was filed as active); inconclusive means small, poorly fitted or top-dose-only effect, or effect the other way, or a change in a side signal; inactive means no such curve, though single readings can be large or run the other way; the % refers to the polarisation. Potencies of inconclusive entries are doubtful fits and often do not repeat. “Side channel” marks fits to a control or component signal instead of the main read-out.

Each molecule was assayed against Menin (Homo sapiens) (UniProt O00255) (assay: qHTS Assay for Inhibitors Targeting the Menin-MLL Interaction in MLL Related Leukemias: Competition With Texas Red Labeled MLL-derived Mutant Peptide). Conditions: fluorescence polarization; FP activity change, negative = inhibition: at 61.6 µM (top of the series).
Potency means the concentration at half of the fitted maximal effect; tags describe the fitted curve by direction and shape or compound fluorescence and quenching.
Wherever FP activity change, negative = inhibition is given: % of control where 0% means no effect.

Sequence of UniProt O00255 (O00255 whole entry, looked up): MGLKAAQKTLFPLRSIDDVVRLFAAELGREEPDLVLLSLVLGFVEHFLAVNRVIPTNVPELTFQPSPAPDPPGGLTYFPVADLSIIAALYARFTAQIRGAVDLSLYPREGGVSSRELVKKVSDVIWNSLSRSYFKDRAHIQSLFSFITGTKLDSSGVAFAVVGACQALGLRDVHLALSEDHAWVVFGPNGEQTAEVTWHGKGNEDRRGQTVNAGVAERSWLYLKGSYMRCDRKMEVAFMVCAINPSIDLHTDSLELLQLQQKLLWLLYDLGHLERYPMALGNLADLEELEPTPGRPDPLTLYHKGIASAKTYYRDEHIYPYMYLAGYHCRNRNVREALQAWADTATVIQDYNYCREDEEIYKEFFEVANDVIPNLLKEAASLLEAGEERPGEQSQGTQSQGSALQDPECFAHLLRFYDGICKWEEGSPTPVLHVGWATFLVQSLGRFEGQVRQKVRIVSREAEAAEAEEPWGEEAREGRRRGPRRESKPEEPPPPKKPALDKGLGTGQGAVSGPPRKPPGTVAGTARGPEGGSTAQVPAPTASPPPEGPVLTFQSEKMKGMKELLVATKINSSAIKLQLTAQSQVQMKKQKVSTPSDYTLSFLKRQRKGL

Potency, inconclusive:
O=C(COC(=O)c1cc([N+](=O)[O-])ccc1NCCO)c1ccccc1 39.8 µM [quencher, side channel, single point], COc1ccc(C(=O)N/N=C(\N)c2cc3ccccc3oc2=O)cc1 14.1 µM [quencher, side channel, partial curve], N#CC1=C(N)SC(N)=C(C#N)C1c1cccc(Oc2ccccc2)c1 28.2 µM [quencher, side channel, single point], COc1cccc(-c2nccc(NCc3cccs3)n2)c1 15.8 µM [quencher, side channel, partial curve], Cc1cc(NC(=O)c2ccccc2[N+](=O)[O-])ccc1Br 14.1 µM [quencher, side channel, partial curve], Cc1nc(NS(=O)(=O)c2ccccc2)sc1NC(=O)Nc1ccccc1 20 µM [quencher, side channel, partial curve], NC(=O)c1nsc(C(=O)N(CC(=O)NC2CCCC2)c2cccc(C(F)(F)F)c2)c1N 35.5 µM [inhibitor, partial curve, poor fit], O=C(NCCOc1ccccc1Cl)C(=O)c1c[nH]c2ccccc12 14.1 µM [quencher, side channel, partial curve], COc1cccc(-c2cncnc2NCc2cccc(C)c2)c1 31.6 µM [fluorescent, side channel, partial curve], O=C(c1cc2c(s1)CCCC2)N1CCN(S(=O)(=O)c2ccccc2C(F)(F)F)CC1 39.8 µM [fluorescent, side channel, single point], O=[N+]([O-])c1ccc(CNc2cccc(Cl)c2)s1 22.4 µM [quencher, side channel, partial curve], CCOc1ccc(NC(=O)Nc2ccc3nsnc3c2)cc1 11.2 µM [quencher, side channel, partial curve], Cc1nc2c(sc(=S)n2Cc2ccco2)c(=O)n1CC(=O)Nc1ccccc1 3.55 µM [quencher, side channel, single point], N=C(N)SCCc1ccc(OCc2ccc([N+](=O)[O-])cc2)cc1 7.94 µM [fluorescent, side channel, full curve, poor fit], Cc1cc(C)c(S(=O)(=O)/N=C2\C=C(Nc3ccc(C(=O)O)cc3)C(=O)c3ccccc32)c(C)c1 7.08 µM [quencher, side channel, partial curve], COc1cc(/C=C(\NC(=O)c2ccccc2)C(=O)Nc2cccc(O)c2)c([N+](=O)[O-])cc1OC 28.2 µM [inhibitor, single point], Cc1ccc(Cn2cc(SCC(=O)Nc3nccs3)c3ccccc32)cc1 14.1 µM [inhibitor, partial curve], O=c1oc2c(CN3CCCCC3)c(O)ccc2cc1-c1nc2ccccc2[nH]1 31.6 µM [quencher, side channel, single point], CC1=NN(c2ccccc2)C(=O)/C1=C/c1ccc(Cl)cc1 15.8 µM [quencher, side channel, single point], O=C(O)C(Cc1c[nH]c2ccccc12)N1C(=O)C2C3c4ccccc4C(c4ccccc43)C2C1=O (configuration not stated) 7.94 µM [quencher, side channel, partial curve], CCS(=O)(=O)C1=NN2C(=N)/C(=C\c3ccc(SCc4ccco4)o3)C(=O)N=C2S1 5.62 µM [fluorescent, full curve], CC1CN(C(=O)c2ccc(COc3ccccc3Cl)o2)CC(C)O1 (configuration not stated) 25.1 µM [inhibitor, single point], Cc1ccc(NN=C2c3ccccc3-c3ccccc32)cc1 8.91 µM [quencher, side channel, partial curve], COc1cc(NC(=O)c2ccc3c(c2)OCCO3)ccc1NC(=O)c1ccco1 25.1 µM [quencher, side channel, single point], COc1ccc(CN2CCC(N(CCc3ccccc3)Cc3ccccc3)CC2)c(OC)c1 2.82 µM [fluorescent, side channel, full curve], CCCCN(C)C(=O)c1oc2ccc(S(=O)(=O)N3CCCCCC3)cc2c1C 14.1 µM [fluorescent, side channel, partial curve], Oc1ccc(N=C/C=C/c2cccc(Br)c2)cc1-c1nc2ccccc2s1 17.8 µM [quencher, side channel, partial curve], COc1ccc(-c2nn(-c3ccccc3)cc2C(=O)Nc2nc(CC(C)=O)ns2)cc1 11.2 µM [quencher, side channel, partial curve], COc1ccc(NC(=O)c2nnn(Cc3ccc(SC)cc3)c2N)c(OC)c1 4.47 µM [quencher, side channel, partial curve], O=C(c1cc2c([nH]c1=O)CCCC2)N1CCc2c([nH]c3ccccc23)C1c1ccccc1F (configuration not stated) 5.01 µM [fluorescent, side channel, full curve, poor fit], C#CCOCCOCCOCCNc1nc(N2CCN(C(=O)[C@H](CCCCN)n3cc([C@@H](N)C(C)CC)nn3)CC2)nc(N2CCN(C(=O)[C@H](Cc3ccc(O)cc3)n3cc([C@@H](N)CC(C)C)nn3)CC2)n1 (some centres not stated) 2.82 µM [fluorescent, side channel, partial curve], CCOC(=O)c1cnc(SC)nc1N1CCCC1 11.2 µM [inhibitor, partial curve], CC1=C(CCN2CCN(C3CCCC3)C(CCO)C2)C(C)(C)CCC1 (configuration not stated) 12.6 µM [fluorescent, side channel, partial curve], COc1ccc(OC)c(CN(CCN2CCOCC2)C(=O)Nc2cccc(Cl)c2)c1 17.8 µM [fluorescent, side channel, partial curve], O=C(OCC(=O)c1cccs1)c1ccc(NC(=O)c2ccco2)cc1 15.8 µM [quencher, side channel, partial curve], Cc1cc(N)n2ncc(-c3ccc(Cl)cc3)c2n1 14.1 µM [quencher, side channel, partial curve], C=CCc1c(C)nc(-c2ccccc2)nc1Nc1ccccc1O 20 µM [quencher, side channel, partial curve], CCOC(=O)c1c(-c2ccccc2)oc2ccc(OCC(=O)NNC(=O)CCC(=O)O)cc12 3.16 µM [inhibitor, partial curve, poor fit], O=c1c2ccccc2nc2c3ccccc3c(Cl)nn12 7.08 µM [inhibitor, single point], Cc1[nH]c2ccccc2c1/C=N/NC(=O)c1cccc(S(=O)(=O)Nc2ccccc2Cl)c1 14.1 µM [quencher, side channel, partial curve], CCc1nnc(NCC(=O)N2CCc3ccccc32)s1 25.1 µM [quencher, side channel, single point], OCC1(CCOc2ccccc2)CCN(Cc2ccc3cccc(F)c3n2)CC1 2.24 µM [fluorescent, side channel, full curve, poor fit], Cc1cccc(Nc2nc(-c3sc(C)nc3C)cs2)c1 35.5 µM [quencher, side channel, single point], COC(=O)c1sc(N/N=C/c2ccc(C(C)C)cc2)nc1C 10 µM [quencher, side channel, partial curve], Cc1cccc(NC(=O)CNC(=O)COc2ccc(C(=O)c3ccc(F)cc3)cc2)c1C 35.5 µM [fluorescent, side channel, single point], CN1C2C=C3C(C#N)=C(N)C(C#N)(C#N)[C@@H](c4cccs4)C3C1CC2 (some centres not stated) 22.4 µM [inhibitor, partial curve, poor fit], CCOC(=O)C1CCN(C(=O)C2CCCN2S(=O)(=O)c2ccc(Cl)cc2)CC1 (configuration not stated) 11.2 µM [inhibitor, partial curve]

FP activity change, negative = inhibition, inactive:
COc1ccc(-c2ocnc2C(=O)Nc2ccccc2N2CCCCC2)cc1 9.55%, CC1=C(C(N)=O)C(c2cccnc2)n2nc(SCc3ccccc3Cl)nc2N1 (configuration not stated) 16.3%, COc1cc(COc2ccc3c(C)c(Cc4ccccc4)c(=O)oc3c2C)cc(OC)c1OC -21.3%, O=C(NC1CCCCNC1=O)c1ccc(Cl)cc1 (configuration not stated) -0.255%, CC(=O)c1ccc(NC(=O)Oc2ccccc2)cc1 0.34%, O=C(NCc1ccccn1)C1(C(F)(F)F)C/C(=C\Cc2ccccc2)CCCO1 (configuration not stated) -5.35%, c1ccc(Sc2cccc3ccccc23)c(CNC2=NCCN2)c1 -22.3%, CC1(C)CC(=O)C(C(C2=C(O)CC(C)(C)CC2=O)c2ccc([N+](=O)[O-])cc2)C(=O)C1 (configuration not stated) 13.3%, COc1cc2cc(CN(CCCO)S(=O)(=O)c3ccccc3)c(=O)[nH]c2cc1OC 16.2%, O=C1CC(N2CCC(O)CC2)C(=O)N1c1ccc(Br)cc1 (configuration not stated) 8.51%
